# In the supplement of paper PMC8728848:
# Some of the results follow.
# Legend:
# Assay in all cases: glycan array binding signal (z-score within array); higher = stronger binding
# Details in all cases: glycan notation: IUPAC condensed, linker removed
# [1] = molecular target: Gal(b1-3)GalNAc(a1-3)[Fuc(a1-2)]Gal(b1-4)Glc
# In short: (§1)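 From the Consortium for Functional Glycomics database, 3228 arrays were curated, keeping only those whose protein sequence was available. Binding is given as a within-array Z-score averaged across arrays sharing a protein sequence and across linkers. Negative Z-scores can be read as non-binding.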
# [2] = molecular target: Gal(b1-3)GalNAc(a1-3)[Fuc(a1-2)]Gal(b1-4)GlcNAc
# In short: as §1
# Gal(b1-3)GalNAc(b1-3)Gal = molecular target: Gal(b1-3)GalNAc(b1-3)Gal
# In short: as §1
# [3] = molecular target: Gal(b1-3)GalNAc(b1-3)Gal(a1-4)Gal(b1-4)Glc
# In short: as §1
# [4] = molecular target: Gal(b1-3)GalNAc(b1-4)Gal(b1-4)Glc
# In short: as §1
# [5] = molecular target: Gal(b1-3)GalNAc(b1-4)[Neu5Ac(a2-3)]Gal(b1-4)Glc
# In short: as §1
# Gal(b1-3)GlcNAc = molecular target: Gal(b1-3)GlcNAc
# In short: as §1
# [6] = molecular target: Gal(b1-3)GlcNAc(a1-3)Gal(b1-4)GlcNAc
# In short: as §1
# [7] = molecular target: Gal(b1-3)GlcNAc(a1-6)Gal(b1-4)GlcNAc
# In short: as §1
# Gal(b1-3)GlcNAc(b1-2)Man = molecular target: Gal(b1-3)GlcNAc(b1-2)Man
# In short: as §1
# [8] = molecular target: Gal(b1-3)GlcNAc(b1-2)Man(a1-3)[Gal(b1-3)GlcNAc(b1-2)Man(a1-6)]Man(b1-4)GlcNAc(b1-4)GlcNAc
# In short: as §1
# [9] = molecular target: Gal(b1-3)GlcNAc(b1-2)Man(a1-3)[Gal(b1-3)GlcNAc(b1-2)Man(a1-6)]Man(b1-4)GlcNAc(b1-4)[Fuc(a1-6)]GlcNAc
# In short: as §1
# [10] = molecular target: Gal(b1-3)GlcNAc(b1-2)Man(a1-3)[GlcNAc(b1-4)][Gal(b1-3)GlcNAc(b1-2)Man(a1-6)]Man(b1-4)GlcNAc(b1-4)GlcNAc
# In short: as §1
# [11] = molecular target: Gal(b1-3)GlcNAc(b1-2)[Gal(b1-3)GlcNAc(b1-6)]Man(a1-6)[Gal(b1-3)GlcNAc(b1-2)Man(a1-3)]Man(b1-4)GlcNAc(b1-4)GlcNAc
# In short: as §1
# [12] = molecular target: Gal(b1-3)GlcNAc(b1-3)Gal(b1-3)GlcNAc
# In short: as §1
# [13] = molecular target: Gal(b1-3)GlcNAc(b1-3)Gal(b1-4)Glc
# In short: as §1
# [14] = molecular target: Gal(b1-3)GlcNAc(b1-3)Gal(b1-4)GlcNAc
# In short: as §1
# [15] = molecular target: Gal(b1-3)GlcNAc(b1-3)Gal(b1-4)GlcNAc(b1-2)Man(a1-3)[Gal(b1-3)GlcNAc(b1-3)Gal(b1-4)GlcNAc(b1-2)Man(a1-6)]Man(b1-4)GlcNAc(b1-4)GlcNAc
# In short: as §1
# [16] = molecular target: Gal(b1-3)GlcNAc(b1-3)Gal(b1-4)GlcNAc(b1-2)[Gal(b1-3)GlcNAc(b1-3)Gal(b1-4)GlcNAc(b1-6)]Man(a1-6)[Gal(b1-3)GlcNAc(b1-3)Gal(b1-4)GlcNAc(b1-2)Man(a1-3)]Man(b1-4)GlcNAc(b1-4)[Fuc(a1-6)]GlcNAc
# In short: as §1
# [17] = molecular target: Gal(b1-3)GlcNAc(b1-3)Gal(b1-4)GlcNAc(b1-3)Gal(b1-4)GlcNAc(b1-2)[Gal(b1-3)GlcNAc(b1-3)Gal(b1-4)GlcNAc(b1-3)Gal(b1-4)GlcNAc(b1-6)]Man(a1-6)[Gal(b1-3)GlcNAc(b1-3)Gal(b1-4)GlcNAc(b1-3)Gal(b1-4)GlcNAc(b1-2)Man(a1-3)]Man(b1-4)GlcNAc(b1-4)[Fuc(a1-6)]GlcNAc
# In short: as §1
# [18] = molecular target: Gal(b1-3)GlcNAc(b1-3)Gal(b1-4)GlcNAc(b1-6)[Gal(b1-3)GlcNAc(b1-3)]Gal(b1-4)Glc
# In short: as §1
# [19] = molecular target: Gal(b1-3)GlcNAc(b1-3)Gal(b1-4)[Fuc(a1-3)]GlcNAc
# In short: as §1
# [20] = molecular target: Gal(b1-3)GlcNAc(b1-3)Gal(b1-4)[Fuc(a1-3)]GlcNAc(b1-6)[Gal(b1-3)GlcNAc(b1-3)]Gal(b1-4)Glc
# In short: as §1
# [21] = molecular target: Gal(b1-3)GlcNAc(b1-3)GalNAc
# In short: as §1
# [22] = molecular target: Gal(b1-3)GlcNAc(b1-6)Gal(b1-4)GlcNAc
# In short: as §1
# [23] = molecular target: Gal(b1-3)GlcNAc(b1-6)GalNAc
# In short: as §1
# [24] = molecular target: Gal(b1-3)GlcNAc(b1-6)[Gal(b1-3)]GalNAc
# In short: as §1
# Gal(b1-3)GlcNAc6S = molecular target: Gal(b1-3)GlcNAc6S
# In short: as §1
# [25] = molecular target: Gal(b1-3)[Fuc(a1-4)]GlcNAc
# In short: as §1
# [26] = molecular target: Gal(b1-3)[Fuc(a1-4)]GlcNAc(b1-2)Man
# In short: as §1
# [27] = molecular target: Gal(b1-3)[Fuc(a1-4)]GlcNAc(b1-2)Man(a1-3)[Gal(b1-3)[Fuc(a1-4)]GlcNAc(b1-2)Man(a1-6)]Man(b1-4)GlcNAc(b1-4)[Fuc(a1-6)]GlcNAc
# In short: as §1
# [28] = molecular target: Gal(b1-3)[Fuc(a1-4)]GlcNAc(b1-3)Gal(b1-3)[Fuc(a1-4)]GlcNAc
# In short: as §1
# [29] = molecular target: Gal(b1-3)[Fuc(a1-4)]GlcNAc(b1-3)Gal(b1-4)GlcNAc
# In short: as §1
# [30] = molecular target: Gal(b1-3)[Fuc(a1-4)]GlcNAc(b1-3)Gal(b1-4)[Fuc(a1-3)]GlcNAc
# In short: as §1
# [31] = molecular target: Gal(b1-3)[Fuc(a1-4)]GlcNAc(b1-6)GalNAc
# In short: as §1
# [32] = molecular target: Gal(b1-3)[GlcNAc(b1-6)]GalNAc
# In short: as §1
# [33] = molecular target: Gal(b1-3)[Neu5Ac(a2-6)]GalNAc
# In short: as §1
# [34] = molecular target: Gal(b1-3)[Neu5Ac(a2-6)]GlcNAc(b1-4)Gal(b1-4)Glc
# In short: as §1
binder,measurement,setting,value
AMA (Arum maculatun) (protein) MAKLLLLLLLPAIVGLAVPRSAAAVGSNYMLSGETLNTDGRLTNGELTLIMQVDCNLVLYHGGWQSNTANNGRDCKLTLTDFGELVIKSGTGSTVWSSGSKQSMKGNYAAVVHPEGRLVIYGPSVFKINPSGAGLNGLPLRNIPLTNNMLFSGQVLYGDGTLSARNHKLVMQGDCNMVLYGGKYGWQSNTHGNGKYCFAMLTHKGELVIRDDDFKSVWSSKSSSKQGDYVFILQDDSLAIIYGPAVFSTGSKKMISMVTN,glycan array binding signal (z-score),[1],-0.223
same,glycan array binding signal (z-score),[2],-0.216
same,glycan array binding signal (z-score),Gal(b1-3)GalNAc(b1-3)Gal,-0.214
same,glycan array binding signal (z-score),[3],-0.217
same,glycan array binding signal (z-score),[4],-0.209
same,glycan array binding signal (z-score),[5],-0.199
same,glycan array binding signal (z-score),Gal(b1-3)GlcNAc,-0.215
same,glycan array binding signal (z-score),[6],-0.22
same,glycan array binding signal (z-score),[7],-0.208
same,glycan array binding signal (z-score),Gal(b1-3)GlcNAc(b1-2)Man,-0.206
same,glycan array binding signal (z-score),[8],3.15
same,glycan array binding signal (z-score),[9],1.01
same,glycan array binding signal (z-score),[10],-0.205
same,glycan array binding signal (z-score),[11],-0.207
same,glycan array binding signal (z-score),[12],-0.207
same,glycan array binding signal (z-score),[13],-0.214
same,glycan array binding signal (z-score),[14],-0.22
same,glycan array binding signal (z-score),[15],0.323
same,glycan array binding signal (z-score),[16],-0.169
same,glycan array binding signal (z-score),[17],-0.182
same,glycan array binding signal (z-score),[18],-0.215
same,glycan array binding signal (z-score),[19],-0.209
same,glycan array binding signal (z-score),[20],-0.21
same,glycan array binding signal (z-score),[21],-0.212
same,glycan array binding signal (z-score),[22],-0.22
same,glycan array binding signal (z-score),[23],-0.216
same,glycan array binding signal (z-score),[24],-0.211
same,glycan array binding signal (z-score),Gal(b1-3)GlcNAc6S,-0.221
same,glycan array binding signal (z-score),[25],-0.21
same,glycan array binding signal (z-score),[26],-0.201
same,glycan array binding signal (z-score),[27],-0.207
same,glycan array binding signal (z-score),[28],-0.202
same,glycan array binding signal (z-score),[29],-0.216
same,glycan array binding signal (z-score),[30],-0.203
same,glycan array binding signal (z-score),[31],-0.216
same,glycan array binding signal (z-score),[32],-0.208
same,glycan array binding signal (z-score),[33],-0.218
same,glycan array binding signal (z-score),[34],-0.218
